B1: LINE1-full (parent)
chain: UACGUAGGUGGUUUUCCCCUGAUAGUGCUAAGGGGGCCUGGAAGUUUGGACUGGGCAGAGCUCAACACAGCGUGGCAAAGUGGCUGUGGCUAGACUGCCUCUCUGGAUUCCUCGUCACUCAGCAGGGCAUCUCUGAGAGAAAUGCC

Read counts are not given, so values of variants with three or more changes are uncertain.

The variants in this series derive from B1. The experiment in a line: self-cleavage, relative activity (ratio to wild type); higher = more cleavage; in vitro, sequencing; the parent is a self-cleaving ribozyme.
Take UACGUAGGUGGUUUUCCCCUGAUAGUGCUAUGGGGGCCUGGAAGUUAGGACUGGGCAGAGCUCAACACAGCGUGGCAAAGUGGCUGUGGCUAGACCGCCUCUCUGGAUUCCUCGUCACUCAGCAGGGCAUCUCUGGGAGAAAUGCC [A31U U47A U96C A136G]: the self-cleavage was found to be 0.25.
On to UACGUAGGUGGUUUUCCCCUGAUAGUGCUAAGGGGGCCUGGAAGUUUGGACUGGGCGGAGCUCAACACAGCGUGGCAAAGUGGCUGUGGCUAGACUGCCUCUCUGGACUCCUCGUCACUCAGCAGGGCAUCUCUGAGAGAAAAGCC [A57G U108C U143A], for which the self-cleavage was 1.28.
Turning to UACGUAGGUGGUUUUCCCCUGAUAGUGCUAAGGGGGCCUGGAAGUUUGGUCUGGGCAGAGCACAACACAGCGUGGCAAAGUGGCUGUGGCUAGGCUGCCUCUCUGGAUUCCUCGUCACUCAGCAGGGCAUCUCUGAGAGAAAUGCC [A50U U62A A94G], the self-cleavage was 0.
In the case of UACGUAGGUGGUUUUCCCCUGUUAGUGCUUAGGGGGCCUGGAAGUUUGGACUGGGCUGAGAUCAACACAGCGUGGCAAAGUGGCUGUGGCUAGACUGCCUCUCUGGAUUCCUCGUCACUCAGCAGGGCAUCUCUGAGAGAAACGCC [A22U A30U A57U C61A U143C] it was 0.1; in that of UACGUAGGCGGUUUUCCCCUGAUAGUGCUAGGGGGGCCUGGAAGUUUGGACUGGGCAGAGCUCAACACAGCGUGGCAAAGCGGCUGUGGCUAGACUGCCUCUCUGGAUUCCUCGUCACUCAGCAGGGCAUCUCUGAGAGAAAUGCC [U9C A31G U81C], 0; in that of UACGUAGGUGGUUUUCCCCUGAUAGUGCUAAGGGGGCCUGGAGGUUUGGACUGGGCAGAGCUCAACACAGCGAGGCAAAGUGGCUGUGGCUAGACUGCCUCUCUAGAUUCCUCGUCACUCAGCAGGGCAUCUCUGAGAGAAAUGCC [A43G U73A G105A], 2.25.
As for UUCGUAGGAGGUUUUCCCCUGAUAGUGCUAAGGGGGCCUGGAAGUUAGGACUGGGCAGAGCUCAACACAGCGUGGCAAAGUGGCUGUGGCUAGACUGCCUCUCUGGAUUCCUCGUCACUCUGCAGGGCAUCUCUGAGAGAAAUGCC [A2U U9A U47A A121U], the self-cleavage was 0.74.
The figure for UACGUGGGUGGUUUUCCCCUGGUAGUGCUAAGGGGGCCUGGAAGUUUGGACUGGGCAGAGCUCAACACAGCGUGGCAAAGUGGCUGUGGCUAGACCGCCUCUCUGGAUUCCUCGUCACUCAGCAGGGCAUCUCUGAGAGAGAUGCC [A6G A22G U96C A141G] is 0.24; for AACGUAGGUGGUUUUCCCCUGAUAGUGCUAAGGGGGCCUGGAAGUUUGGACUGGGCAGAGCUCAACACAGCGUGGCAAUGUGGCUGUGGCUAGACUGCCACUCUGGAUUCCUCGUCACUCAGCAGGGCAUCUCUGAGAGGAAUGCC [U1A A79U U100A A140G] it is 2.21.
For UACGUAGGUGGUUUUCCCCUGAUAGUGCUAAGGGGGCCUGGAAGUUUGGACUGGGCAGAGCUCAACACAGUGUGGCAAAGAGGCUGUGGCUAGACUGCCUCUCUGGAUUCCUCGACACUCAGCAGGGCAUCUCUGAGAGAAAUGCC [C71U U81A U115A], the self-cleavage was determined as 0.94.
Turning to UACGUAGGUGGUUUUCCCCUGGUAGUGCUAAGGGGGCCUGGAAGUUUGGACUGGGCAGGGCUCAACACAGCGUGGCAGAGUGGCUGUGGCUAGACUGCCUCUCUGGAUUCCCCGUCACUCAGCAGGGCAUCUCUGAGAGAAAUGCC [A22G A59G A78G U112C], the self-cleavage was 0.
On to UACGUAGGUGGUUUUCCCCUGAUAGUGCUUAGGGGGCCUGGAAGUUUGGACUGGGCAGAGCUCAACACAGCGUGGCAGAGUGGCUGUGGCUAGGCUGCCUCUCUGGAUUCCUCGUCACUCAGCAGGGCAUCUCUGAGAGAAAUGCC [A30U A78G A94G], for which the self-cleavage is 0.3.
As for UACGUAGGUGGUUCUCCCCUGAUAGUGCUAAGGGGUUCUGGAAGUUUGGACUGGGCAGAGCUCAACACAGCGCGGCAAAGUGGCUGUGGCUAGACUGCCUCUCUGGAUUCCUCGUCACUCAGCAGGGCAUCUCUGAGAGAAAUGCC [U14C G36U C37U U73C], the self-cleavage was determined as 1.36.
Turning to UACGUAGGUGGUUUUCCUCUGAUAGUGCUAAGGGGGCCUGGAAGUUUGGACUGGACAGAGCUCAACACAGCGUGGCAAAGUGGCUGUGGCUGGACUGCCUCUCUGGAUUCCUCGUCACUCAGCAGGGCAUCUCUGAGAGAAAUGCC [C18U G55A A92G], the self-cleavage is 0.06.
Consider UACGUAGGUGGUUUACCCCUGAUAGUGCUAAGGGGGCCUGGAAGUUUUGACUGGGCAGAGCUCUACACAGCGUGGCAAAGUGGCUGUGGCUAGACUGCCUCUCUGGAUUCCUCGUCACUCAGCAGGGCAUCUCCGGGAGAAAAGCC [U15A G48U A64U U134C A136G U143A], for which the self-cleavage is 0.07.
The figure for UACGUAGGUGGCUUCCCCCUGAUAGUGCUAAGGGGGCCUGGAAGUUUGGACUGGGCGGAGCUCAACACAGCGUAGCAAAGUGGCUGUGGCUAGACUGCCUCUCUGGGUUCCUCAUCACUCAGCAGGGCAUCUCUGAGAGAAAUGCC [U12C U15C A57G G74A A107G G114A] is 1.1; for UACGUAGGUGGGUUUCCCCUGAUAGUGCUAAGGGGGCCUGGAAGUUUGGACUGGGCAGAGCUCAACACAGCGUGGCUAAGUGGCUGUGGCUAGACAGCCUCUCUGGAUUCCUCGUCACUCAGCAGGGCAUCUCUGAGAGAAAUGCC [U12G A77U U96A] it is 0.
The figure for UACGUAGGUGGUUUUCCCCUGAUAGUGCUAAGGGGGCCUAGAAGUUUGGACUGGGCAGGGCUCAACACAGCGUGGCAAAGUGGCUGUGGCUAGACUGCCUCUCUGGGUUCCUCGCCACUCAGCAGGGCAUCUCUGAGAGAAAUGCC [G40A A59G A107G U115C] is 0; for UACGUAGGUGGUUUUCCCCUGAUAGUGCUAAGGGGGCCUGGAAGUUUGGACUGGGUAGAGCUCAACACGGCGUGGCAAAGUGGCUGUGGCUAGACUGCCUCUCCGGAUUCCUCGUCACUCAGCAGGGCAUCUCUGAGAGAAAUGCC [C56U A69G U104C] it is 0.07.
